Test results reported in the supplement of paper PMC11417369.
The other results are listed elsewhere or left out.

The sequences below were run on PfAP2-HC AP2 domain (GST-tagged) (assay: gcPBM binding intensity (ln(normalized median fluorescence intensity)); higher = stronger DNA binding).
Outline: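 Plasmodium falciparum DNA-binding domains carrying a GST tag were expressed in E. coli and applied for 1 h, at about 25 μg on average, to an Agilent 4 × 180k array. The array held primer-extended double-stranded 36-bp intergenic genomic probes together with negative controls, and binding took place in 1× PBS with 1% milk, 0.2 mg/ml BSA, 0.5% salmon testes DNA and 0.03% Triton X-100. An Alexa488 anti-GST antibody detected bound protein, and the array was scanned at 488 nm. Binding intensity is taken as the highest Masliner-normalised natural-log median intensity across replicate spots of either probe orientation.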
“ATATAAAACAACGGGTGTACAAAAAAATAAATAATA [XGTACX_site4094]” was tested, and the “gcPBM binding intensity (ln)” value was 9.86. For “AAAGAAATGAAATATACACACATACCTATATACATA [CACACA_site7817]”, the “gcPBM binding intensity (ln)” value was 10.2. With “TTTTTCTTCTGCATTATGCACACTATAATTCGTTAA [CACACA_site2837]” the “gcPBM binding intensity (ln)” value was 9.87. “CTGAATGTATATATTTGTACATATATATATATATAT [XGTACX_site5557]” was tested, and the “gcPBM binding intensity (ln)” value was 9.73. With “GGGTATAATAAAAGCACACACAAAGATATAAATATA [CACACA_site3308]” the “gcPBM binding intensity (ln)” value was 10.6. With “AAAAAAAAAAAACACGCATGTACATAAAAATAATCA [TGCATGCA_site142]” the “gcPBM binding intensity (ln)” value was 9.92. “TTTTTTTTTTTTAATTAACACACATAAATATATATA [CACACA_site9077]” was tested, and the “gcPBM binding intensity (ln)” value was 9.47. With “TTAAAATCTTGAAAAGTGCATTATCATTTTGTAACG [GTGCAC_site9447]” the “gcPBM binding intensity (ln)” value was 9.44. “TATAATGATGATGATAGTACGTATGAGTTCAAAAAA [XGTACX_site3656]” was tested, and the “gcPBM binding intensity (ln)” value was 9.72. With “TATATATTTATATATGCATGTACATTTTTATTTATT [TGCATGCA_site1048]” the “gcPBM binding intensity (ln)” value was 9.86. In the case of “TAAATCTATATCATCACACACACATACATAAATATA [CACACA_site6228]”, the “gcPBM binding intensity (ln)” value is reported as 10.2. With “TAGTATTGTAAAAAAAAAAAAGAAAAAAAAAAAAAA [CACACA_negctrl_site977]” the “gcPBM binding intensity (ln)” value was 9.07. With “AATATATGGTTCCTTGATATTAAATTCAATTTAATG [CACACA_negctrl_site71]” the “gcPBM binding intensity (ln)” value was 9.55. With “TGTGTATATGTGCAAAGTACAAAAAAGAAATTATTT [XGTACX_site7569]” the “gcPBM binding intensity (ln)” value was 9.83. “GAAAAAAAATCCAAGATGCACTATTATTACAAAAAT [GTGCAC_site9516]” was tested, and the “gcPBM binding intensity (ln)” value was 9.67. In the case of “GTCAAAAGTTTTTAAGGTACACTTATTTTATTATAA [XGTACX_site7004]”, the “gcPBM binding intensity (ln)” value is reported as 9.66. In the case of “ATGTAATATATGCGGAAATATATTCACAAGACGTCA [CACACA_negctrl_site373]”, the “gcPBM binding intensity (ln)” value is reported as 9.69. In the case of “CACTAAACATATACACGTACATGCAACGGATTTTTT [XGTACX_site461]”, the “gcPBM binding intensity (ln)” value is reported as 9.67. For “ACCTTTATTGTATGAACACACATAAGCTGATACATC [CACACA_site4028]”, the “gcPBM binding intensity (ln)” value was 9.81. For “TGGATGTTAATATAGTGTACATTTATAAGTCAGTAT [XGTACX_site2949]”, the “gcPBM binding intensity (ln)” value was 9.72. In the case of “GTGGAAAAAAATAATTGTACACAATAATAAATATAT [XGTACX_site2414]”, the “gcPBM binding intensity (ln)” value is reported as 9.83. In the case of “TGTATATATCAATGTACACACATGCGTATGTTCGTT [CACACA_site7654]”, the “gcPBM binding intensity (ln)” value is reported as 10.2. In the case of “TATAAAAAAAATTGCACACATATTATACAGGACGAC [CACACA_site701]”, the “gcPBM binding intensity (ln)” value is reported as 10.5. In the case of “AAAATATATATAACTTGTACATATACATACGTATAT [XGTACX_site4570]”, the “gcPBM binding intensity (ln)” value is reported as 9.77. In the case of “TTACATATTATACGAAGTACGTACAAATACTTATAT [XGTACX_site8598]”, the “gcPBM binding intensity (ln)” value is reported as 9.66. In the case of “TTGCATTGTCCATGCGCACACACTACTAGAATAATA [CACACA_site3678]”, the “gcPBM binding intensity (ln)” value is reported as 10. In the case of “AATTATAAATTGGACACACACATAAAAAATATGTAC [CACACA_site221]”, the “gcPBM binding intensity (ln)” value is reported as 10.2. “TAAAGGAAATAAAAAACATGCAAATATGAAATATAT [TGCATGCA_site745]” was tested, and the “gcPBM binding intensity (ln)” value was 9.73. With “ATACATAATAACTCCTGTACTTAAAAATGTATATAT [XGTACX_site1071]” the “gcPBM binding intensity (ln)” value was 9.6. With “TAAAAAAAAACATGTGCACACGTTTTATCTACATAA [CACACA_site2336]” the “gcPBM binding intensity (ln)” value was 10.4. For “TCATTTATTGAGGAATGTACACGTAAAATTTAATAA [XGTACX_site4086]”, the “gcPBM binding intensity (ln)” value was 9.54. With “ATTTTTTTTTTTTTTTTCTTTTTTCTTCTTTTTTTT [CACACA_negctrl_site1223]” the “gcPBM binding intensity (ln)” value was 9.61. With “ATATATATTATAAAATGTACAAATGTTATATAAAAT [XGTACX_site4750]” the “gcPBM binding intensity (ln)” value was 9.85. In the case of “TTTTTTTTTTTTTTATGTACATATATATATTTTATT [XGTACX_site6915]”, the “gcPBM binding intensity (ln)” value is reported as 9.76. For “ACCTTATTTAGTTATAGTACACAAAGTATTAAACAT [XGTACX_site8418]”, the “gcPBM binding intensity (ln)” value was 9.89. TATATATATTTTTGTGTGCACTATAATATGAAAATA was tested, and the “gcPBM binding intensity (ln)” value was 9.7. In the case of “GCGAATAATATGGACATACACACATATACATACATA [CACACA_site2115]”, the “gcPBM binding intensity (ln)” value is reported as 10. “TTTTTTTTTTTCTTCACACACAGTACTACTATTTAT [CACACA_site2409]” was tested, and the “gcPBM binding intensity (ln)” value was 10.1. “TTGTTTATTTGTAAAGCTAACAAGAAATGTGAATAT [CACACA_negctrl_site931]” was tested, and the “gcPBM binding intensity (ln)” value was 9.51. With “AACGAACACTATTACACACATACATACATATGTATG [CACACA_site1859]” the “gcPBM binding intensity (ln)” value was 10.1. For “TATACATAAAAATGATGTACATATAATATATATATA [XGTACX_site3863]”, the “gcPBM binding intensity (ln)” value was 9.8. For “TTATTATTATAAAATTGTACTTGGTATATTAACATA [XGTACX_site5829]”, the “gcPBM binding intensity (ln)” value was 9.53. For “AATGTATTATGTCTTCGTACACATAAATAAATAAAT [XGTACX_site4004]”, the “gcPBM binding intensity (ln)” value was 9.58. With “GGATTAATATATTTACCACACACCCATTTCGATTTT [CACACA_site9200]” the “gcPBM binding intensity (ln)” value was 10.1.
